# Test results as given in PubChem BioAssay (NCATS).
# The shares of active, inactive and inconclusive entries below differ from those in the screen. Potencies beside an inconclusive call are fits to weak or partial responses and may not hold up. Activity calls are given as the source filed them. Calls come from the whole dose curve; as a rule, active = well fitted inhibition curve with a large enough effect; inconclusive = small, poorly fitted or top-dose-only effect; inactive = flat fitted curve, though single readings scatter.
# Key:
# [1] = qHTS Assay for Inhibitors of Fructose-1,6-bisphosphate Aldolase from Giardia Lamblia: Mammalian cellular toxicity (AID 2786);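 note: compound exposure lasted 48 h before reading; nearly all actives have a fitted effect of over 60% in size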
# In short: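 Chinese hamster ovary cells (250/well, DMEM with 10% FBS and penicillin/streptomycin) were exposed to compounds for 48 h at 37 °C, 5% CO2. Viability was taken as cellular ATP content, read with ATPlite reagent after 20 min.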
# [2] = biological target: Fructose-bisphosphate aldolase A (Oryctolagus cuniculus) (UniProt P00883); assay: qHTS Assay for Inhibitors of Fructose-1,6-bisphosphate Aldolase from Giardia Lamblia: Rabbit FBPA Selectivity (AID 2794); note: nearly all actives have a fitted effect of over 60% in size
# Chain of UniProt P00883 (P00883 whole entry, looked up): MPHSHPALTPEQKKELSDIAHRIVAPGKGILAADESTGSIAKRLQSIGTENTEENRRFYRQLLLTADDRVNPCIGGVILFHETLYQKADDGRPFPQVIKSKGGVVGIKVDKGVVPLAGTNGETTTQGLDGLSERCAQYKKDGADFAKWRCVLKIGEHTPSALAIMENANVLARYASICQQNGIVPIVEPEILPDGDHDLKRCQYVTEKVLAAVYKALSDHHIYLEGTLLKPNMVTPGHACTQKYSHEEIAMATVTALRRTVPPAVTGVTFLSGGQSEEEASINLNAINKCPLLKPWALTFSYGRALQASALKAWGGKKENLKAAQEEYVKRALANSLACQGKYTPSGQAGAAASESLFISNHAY
# In short: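 Selectivity counter-screen using rabbit Class I FBPA in a coupled enzyme system with fluorescent detection (ex 525 nm/em 598 nm). Compounds at up to 57.5 uM final were preincubated 10 min at RT with coupling enzymes, then substrate/detection reagent added for 20 min at RT.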
# [3] = qHTS Assay for Inhibitors of Fructose-1,6-bisphosphate Aldolase from Giardia Lamblia: Coupling assay counterscreen confirmation (AID 2795); note: nearly all actives have a fitted effect of over 55% in size
# In short: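 Coupling enzymes were first exposed to test compounds (final up to 57.5 uM) for 10 min at room temperature. A substrate plus coupling-system plus AmpLite Red mixture was then added, and after 20 more minutes fluorescence was measured at 525/598 nm.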
# [4] = biological target: Fructose-bisphosphate aldolase (Giardia intestinalis (strain ATCC 50803 / WB clone C6)) (UniProt A8B2U2); assay: qHTS Assay for Inhibitors of Fructose-1,6-bisphosphate Aldolase from Giardia Lamblia: Primary screen confirmation (AID 2787); note: nearly all actives have a fitted effect of over 45% in size
# Chain of UniProt A8B2U2 (A8B2U2 whole entry, looked up): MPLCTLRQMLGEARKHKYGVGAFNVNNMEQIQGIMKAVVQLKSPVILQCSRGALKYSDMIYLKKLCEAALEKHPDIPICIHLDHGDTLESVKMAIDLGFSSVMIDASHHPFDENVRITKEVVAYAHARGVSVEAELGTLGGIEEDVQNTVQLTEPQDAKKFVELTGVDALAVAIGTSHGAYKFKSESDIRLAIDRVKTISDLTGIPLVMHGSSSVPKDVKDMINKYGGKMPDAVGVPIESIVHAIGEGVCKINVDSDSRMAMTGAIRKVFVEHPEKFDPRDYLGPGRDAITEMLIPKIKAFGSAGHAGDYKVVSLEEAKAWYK
# In short: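 FBPA (40 nM in enzyme reagent, with 30 uM ZnCl2) was preincubated 10 min at RT with compound up to 57.5 uM final. Substrate plus coupled detection system was then added, and fluorescence (525/598 nm) was read after 20 min at RT.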
# Potency is the fitted concentration of half-maximal effect; tags give direction and shape of the fitted curve.
SMILES,Potency [1],Potency [2],Potency [3],Potency [4]
COC(=O)c1cc(=O)c2c(C)nc(C(Cl)(Cl)Cl)nc2[nH]1,inactive,,,
CC1(C)OC2C(CO)OC(n3cnc4c(=S)nc[nH]c43)C2O1 (configuration not stated),"inconclusive: 79.4 µM [inhibitor, single point]",,,
NS(=O)(=O)c1ccc(NC(=S)NC2CCCCC2)cc1,"inconclusive: 39.8 µM [inhibitor, partial curve, poor fit]","inconclusive: 39.8 µM [inhibitor, single point]",active: 39.8 µM,
CNC(=S)N/N=C/c1ccc(N2CCOCC2)s1,inactive,,,
O=C(O)c1cc(-c2cc(C(=O)O)c3ccccc3n2)nc2ccccc12,,,,inactive
O=C(Nc1nnc(-c2ccco2)o1)c1ccc(S(=O)(=O)N2CCOCC2)cc1,,,,inactive
Cn1c(SCC(=O)c2ccc(O)c(O)c2)nnc1-c1cccs1,,,,"inconclusive: 35.5 µM [inhibitor, partial curve]"
O=C(Nc1ccccc1)Oc1ccc[nH]c1=O,"inconclusive: 32.6 µM [inhibitor, partial curve, poor fit]",active: 0.73 µM,active: 2.59 µM,
CC(C)c1ccc(S(=O)(=O)N2CCN(CC(=O)c3ccc(O)c(O)c3)CC2)cc1,"inconclusive: 100 µM [inhibitor, single point]",,,"inconclusive: 20 µM [inhibitor, partial curve]"
Nc1cccc2[nH]c(C(F)(F)F)nc12,"inconclusive: 50.1 µM [inhibitor, single point]",,,"inconclusive: 15.8 µM [inhibitor, partial curve]"
O=C(N/N=C\c1ccccn1)c1ccccc1O,"inconclusive: 63.1 µM [inhibitor, single point]",,inactive,
Cc1ccc(NC(=O)CN(C)C2CCCCC2)cc1Cl,,,,inactive
CC(=O)NC(c1ccccc1)c1cc([N+](=O)[O-])c2cccnc2c1O (configuration not stated),"inconclusive: 79.4 µM [inhibitor, single point]","inconclusive: 39.8 µM [inhibitor, partial curve]",,
CC(C)(C)N(CC#CCC(O)(c1ccccc1)c1ccccc1)CCO,inactive,inactive,,
CCCCC(=O)NC(=S)Nc1nnn(CCC)n1,active: 39.8 µM,,"inconclusive: 0.447 µM [inhibitor, full curve, poor fit]",
O=C(O)c1ccc2cccnc2c1O,,,,"inconclusive: 12.6 µM [inhibitor, partial curve]"
NC(=S)N/N=C/c1ncc(C(F)(F)F)cc1Cl,"inconclusive: 25.1 µM [inhibitor, single point]",inactive,"inconclusive: 63.1 µM [inhibitor, partial curve]",
CC1=NN(c2nc3ccccc3[nH]2)C(=O)C1Cc1ccccc1 (configuration not stated),"inconclusive: 63.1 µM [inhibitor, single point]",,,inactive
O=[N+]([O-])c1ccccc1/C=N/n1c(C(F)(F)F)n[nH]c1=S,,"inconclusive: 20 µM [inhibitor, single point]","inconclusive: 39.8 µM [inhibitor, single point]","inconclusive: 35.5 µM [inhibitor, single point]"
CCN(CC)c1ccc(N=Cc2c(C)[nH]c3ccccc23)cc1,,"inconclusive: 3.55 µM [inhibitor, full curve]","inconclusive: 6.31 µM [inhibitor, full curve]","inconclusive: 2.51 µM [inhibitor, full curve]"
CCN1CCc2nc(N)sc2C1,,"inconclusive: 31.6 µM [inhibitor, single point]",active: 28.2 µM,"inconclusive: 28.2 µM [inhibitor, single point]"
CC1=C(C#N)C(=O)N(C2CCS(=O)(=O)C2)C(=O)/C1=C\c1ccc(C)o1 (configuration not stated),,"inconclusive: 79.4 µM [inhibitor, partial curve]","inconclusive: 50.1 µM [inhibitor, partial curve]","inconclusive: 25.1 µM [inhibitor, partial curve]"
Cc1cc(-c2ccco2)c(C#N)c2nc3ccccc3n12,,"inconclusive: 79.4 µM [inhibitor, partial curve]","inconclusive: 63.1 µM [inhibitor, partial curve]","inconclusive: 28.2 µM [inhibitor, partial curve]"
COc1ccc(-n2c(C)cc(/C=N/Nc3nnc(C)n3N)c2C)cc1,,"inconclusive: 50.1 µM [inhibitor, partial curve]","inconclusive: 50.1 µM [inhibitor, partial curve]",active: 20 µM
N#CC1=C(N)Oc2c(O)cc3ccccc3c2C1c1ccsc1 (configuration not stated),,"inconclusive: 50.1 µM [inhibitor, partial curve]","inconclusive: 63.1 µM [inhibitor, partial curve]","inconclusive: 17.8 µM [inhibitor, partial curve]"
